Experimental data published in the supplement of paper PMC10126150.
Values marked as one replicate rest on one cluster of the flow cell; about a third of the high ones do not repeat.

Tested on: ATP
Assay: switch fluorescence ratio, 500 uM ATP over buffer (Cy3 cluster intensity, sum of 5 cycles each) (fold (ratio)); higher = stronger signal-on switching upon ATP binding; sequences stand for … in TCGTCGGCAGCGTCAGATGTGTATAAGAGACAGTTTTTTTTTTTTTTTTTTTTTTTTT…TC
Conditions: aptamer strand: ATP DNA aptamer (quencher-CACCTGGGGGAGTATTGCGGAGGAAGG + anchor), 100 nM annealed; ATP concentration: 500 uM; one replicate
How it was run: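 The fluorescence ratio divides summed target-cycle Cy3 intensity by summed buffer-cycle Cy3 intensity for each cluster and is averaged per switch-domain sequence. Cy3-labelled switching-strand clusters on a modified Illumina MiSeq flow-cell were annealed to 100 nM quencher-labelled ATP aptamer, then imaged in selection buffer and again after 15 min with 500 uM ATP at 22 °C. Five such cycles were run, with NaOH stripping and re-annealing between them, and clusters outside 100-1000 RFU were excluded.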
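Also: ATP exposure 15 min at 22 °C before imaging.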

Row | Sequence | switch fluorescence ratio
1 | TACAGGACAC | 1.11
2 | AAAATTGATA | 0.985
3 | GATATAGGAG | 1
4 | TTGCGCGTGC | 1.01
5 | GTGGGTACCT | 1.01
6 | ATGCGAGCTT | 0.983
7 | GCGTCGCATA | 0.981
8 | AACGTTGTCT | 0.991
9 | GCAAGTCGCA | 0.973
10 | GTGGGTACGT | 0.971
11 | CACTTCCCGG | 1.28
12 | GGGACCCTGT | 0.989
13 | CTAGCGAAAG | 0.985
14 | CTCCGGTTTT | 1.7
15 | TTACGTGTTT | 1.03
16 | TAGAGCGGCG | 0.929
17 | CCCCGCCGGC | 1.55
18 | CAGCTGGTCC | 1.02
19 | AACGATTCCG | 1.05
20 | TAGGAACCTG | 1.08
21 | CATCGTATTG | 0.97
22 | TGACTAGCAG | 1.01
23 | GAGGTGCGCG | 0.971
24 | AACGTCAACT | 1.3
25 | AAAATGGCAA | 1.13
26 | TCTGTGCTAA | 1.02

Row | Sequence | switch fluorescence ratio
27 | GGGCTGGTTG | 0.997
28 | CACCCATTGT | 1.04
29 | TTCGAGGGTG | 1.04
30 | ATTTCTTCGC | 1.31
31 | CATTAATTTA | 1.02
32 | TAAGTTCGCT | 0.993
33 | CGGGAGAAGA | 0.975
34 | CAAGACCAGC | 1
35 | CTACGAGCCG | 1
36 | GTGTTCATAC | 4.29
37 | GCTATAATGG | 0.979
38 | GTGCAGAAAT | 1
39 | CTTGTCATGT | 0.994
40 | TTGTTGAACG | 0.943
41 | TGGATATTG | 0.989
42 | CTTCCTCGAG | 2.36
43 | AAACACCTGA | 1.17
44 | TTGCTTTAAA | 0.951
45 | GTGCACCTTT | 1.01
46 | GTGCTGGGCC | 1.02
47 | GTGGATTTTG | 0.974
48 | GATCTGGTTA | 0.978
49 | GTTGACTCGT | 1
50 | TGAGTATCCA | 1
51 | CCATGTTCTG | 0.947
52 | CTACGGCATG | 1.11

Row | Sequence | switch fluorescence ratio
53 | TCCTGTGTCA | 1.04
54 | CTACTCGGTC | 0.934
55 | TAGCGTTATT | 1.04
56 | CAATACCGCG | 1.06
57 | CCTGGCACTT | 1.8
58 | GGCTGATGAG | 1.01
59 | GGCTCACCTC | 0.992
60 | AATCCAGTT | 0.972
61 | GATCGACAGT | 1.02
62 | GAAAACTTGA | 1.02
63 | TAAACAGGAT | 1
64 | GCTTTATTAG | 1.02
65 | TAGTCCTCAT | 1.02
66 | CCCCCCTGGG | 5.46
67 | AGCTTGTATG | 0.995
68 | GTTATTTCTT | 1.02
69 | GCTCATACGC | 1.21
70 | ACTGGAGGGG | 0.968
71 | TTCACCGGC | 1.05
72 | ATCAAGCTGC | 0.944
73 | CATCGAAAGT | 1.08
74 | TTAAGCAAAA | 1.15
75 | TCGCCAAGCC | 1.63
76 | CTTCCATTCG | 1.26
77 | AGAACGGCAC | 1.79
78 | CGTTGTCACT | 0.997

Row | Sequence | switch fluorescence ratio
79 | AACGAAATGC | 1.94
80 | CTGGCTGTCG | 1.01
81 | GTAAATTTTG | 0.998
82 | AGCGTGAAGA | 0.993
83 | GCACCGTGCT | 0.93
84 | TTAGTGACGG | 0.966
85 | TTACGGGTGT | 1.01
86 | TCATTATCAT | 0.97
87 | ATAGCCCCAC | 1
88 | AGAGTAATGC | 1.17
89 | TCTGCTCTCG | 1.01
90 | ATAATTGACA | 1.08
91 | TTAGCATGCG | 1.04
92 | TTACCTTCCA | 1.98
93 | GGTAGACCAG | 1
94 | GAGTGAGATT | 1.01
95 | TGATACTAAA | 0.991
96 | ACTCATTGCG | 1.06
97 | TTGGTGGGTC | 1.03
98 | CGTATTCTAT | 1.02
99 | AACTAGGCAT | 1.01
100 | CGCGATTCAC | 2.98
101 | GATGGAGCTA | 0.995
102 | TGATCCTGGT | 0.989
103 | GGTAGTGAGG | 1
104 | TCGTGCCAAG | 1.02

Row | Sequence | switch fluorescence ratio
105 | CATTAATCGT | 0.966
106 | GTGGTTCGAA | 1
107 | CGGTCCCCTT | 1.05
108 | GGGTAGCCGC | 0.987
109 | CAGTTACCTG | 0.999
110 | GAGATAACG | 0.945
111 | GGTATCTTTG | 1
112 | AGCTGGAGTT | 1.02
113 | GGAGGGTTCG | 0.973
114 | AGGTCCGGCC | 0.986
115 | AGAGCGTCAT | 0.995
116 | CAATTTACAT | 1.07
117 | AGTTCCTCAA | 1.05
118 | GCAATGGCTA | 1.08
119 | CATTTACGAG | 1.03
120 | GACCTGCTGC | 1.09
121 | ATAAGGAT | 0.993
122 | TGTAATTTTT | 1.02
123 | CACTGGATTT | 1.01
124 | CTTCGGGTTG | 1.02
125 | AGAGCCTTAA | 1.02
126 | CGTGGGGTGA | 1.04
127 | CAGGCCGAGG | 0.983
128 | CTATAACATT | 1.06
129 | CAAGCGCGCG | 1.09
130 | CAAGCTTCCT | 1.99

Row | Sequence | switch fluorescence ratio
131 | GAAGTTCGAT | 1.06
132 | GGAAAGACCA | 1.03
133 | CGTGACGTCG | 1.1
134 | TCCACCGTGT | 1.24
135 | CCCCTACAGG | 1.24
136 | AGAGAACGCC | 1.03
137 | TAGATCATGG | 1.06
138 | CGTGTATTGT | 1
139 | ACCGACACAG | 1.09
140 | ATCATTCCG | 1.03
141 | AATATATTGT | 0.984
142 | ATCGGTTGAC | 0.992
143 | CGGAAGGAGT | 0.963
144 | TAGGTAGCCC | 1.02
145 | ATCGGATTC | 1.01
146 | TTCGAGAACT | 0.953
147 | AAATAGATTT | 0.983
148 | AAAGGATGAA | 0.996
149 | GTCGCGGATA | 1.01
150 | TCGTTAGTGC | 1.02
151 | GGCATTCACT | 1
152 | TCGTAATGTC | 1.09
153 | CCGAGTGCG | 1.25
